Experimental data: paper PMC8463077
Results are given in words; binding and its absence hold for the method and conditions named. For some assays here: In cells and extracts the contact can be indirect. Some entries that bind do so weakly or less than the wild type. For some assays here: Where a sequence is shown, tags or fusion partners need not be part of it. Each block holds one binder with its values, some of them ahead of it.

Amino acid sequences for entries named in this document (tags omitted).
UniProt P46937: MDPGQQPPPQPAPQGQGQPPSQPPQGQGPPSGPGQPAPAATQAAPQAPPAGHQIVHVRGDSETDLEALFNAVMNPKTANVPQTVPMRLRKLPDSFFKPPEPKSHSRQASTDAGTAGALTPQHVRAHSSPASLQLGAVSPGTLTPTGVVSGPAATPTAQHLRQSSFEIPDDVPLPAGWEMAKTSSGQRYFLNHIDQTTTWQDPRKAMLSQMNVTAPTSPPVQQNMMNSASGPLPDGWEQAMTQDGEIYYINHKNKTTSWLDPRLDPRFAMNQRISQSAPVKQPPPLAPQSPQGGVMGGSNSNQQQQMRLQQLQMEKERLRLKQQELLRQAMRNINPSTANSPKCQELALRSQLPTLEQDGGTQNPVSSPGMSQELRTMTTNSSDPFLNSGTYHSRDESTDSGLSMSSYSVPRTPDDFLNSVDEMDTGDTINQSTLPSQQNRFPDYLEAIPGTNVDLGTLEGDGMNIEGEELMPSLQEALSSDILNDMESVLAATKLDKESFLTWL
UniProt Q9GZV5: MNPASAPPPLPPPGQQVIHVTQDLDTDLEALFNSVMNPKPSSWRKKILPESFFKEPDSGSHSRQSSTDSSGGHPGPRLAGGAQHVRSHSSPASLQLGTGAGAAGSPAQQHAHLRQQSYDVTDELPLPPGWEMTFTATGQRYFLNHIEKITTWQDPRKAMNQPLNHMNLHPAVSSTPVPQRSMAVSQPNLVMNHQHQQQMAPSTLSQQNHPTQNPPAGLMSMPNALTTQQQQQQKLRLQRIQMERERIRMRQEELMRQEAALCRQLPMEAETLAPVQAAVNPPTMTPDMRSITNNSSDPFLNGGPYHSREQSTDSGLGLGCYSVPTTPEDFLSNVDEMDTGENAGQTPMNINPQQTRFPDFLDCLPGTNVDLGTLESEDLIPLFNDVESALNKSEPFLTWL

Columns and labels:
[1] = target: HA-tagged YAP (wild type), P46937; assay: co-IP; HA-tagged YAP or TAZ derivatives co-expressed with FLAG-tagged STAT3 or JUNB in 293T cells for 2 days; IP with anti-HA antibody or control IgG, Dynabead protein G; co-IP buffer 50 mM Tris pH 7.5, 100 mM NaCl, 1.5 mM EGTA, 0.1% Triton X-100; 4°C overnight; details: remark: other sources report otherwise
[2] = target: HA-tagged TAZ (wild type) (UniProt Q9GZV5); assay: as above
[3] = target: YAP (human (endogenous in MCF-10A-ER-Src)), P46937; assay: co-IP; endogenous proteins in nucleoplasm and chromatin fractions of non-transformed (ethanol) and transformed (tamoxifen) MCF-10A-ER-Src cells; antibodies against the indicated proteins or IgG control, Dynabead protein G; co-IP buffer 50 mM Tris pH 7.5, 100 mM NaCl, 1.5 mM EGTA, 0.1% Triton X-100; 4°C overnight; co-IP in general more efficient in transformed cells; details: remark: other sources report otherwise
[4] = target: His-tagged recombinant TAZ (UniProt Q9GZV5); assay: co-IP; in vitro, pairs of E. coli-generated His-tagged recombinant proteins; co-IP procedure similar to that for lysates; western blot of input (10%) and IP; both purified
[5] = target: His-tagged recombinant YAP, P46937; assay: as above; details: remark: other sources report otherwise
[6] = target: TAZ (human (endogenous in MCF-10A-ER-Src)) (UniProt Q9GZV5); assay: co-IP; endogenous proteins in nucleoplasm and chromatin fractions of non-transformed (ethanol) and transformed (tamoxifen) MCF-10A-ER-Src cells; antibodies against the indicated proteins or IgG control, Dynabead protein G; co-IP buffer 50 mM Tris pH 7.5, 100 mM NaCl, 1.5 mM EGTA, 0.1% Triton X-100; 4°C overnight; co-IP in general more efficient in transformed cells
[7] = target: TAZ (human (endogenous in MCF-10A-ER-Src)) (UniProt Q9GZV5); assay: co-IP; endogenous proteins in the cytoplasm fraction of non-transformed (ethanol) and transformed (tamoxifen) MCF-10A-ER-Src cells; antibodies against the indicated proteins or IgG control, Dynabead protein G; co-IP buffer 50 mM Tris pH 7.5, 100 mM NaCl, 1.5 mM EGTA, 0.1% Triton X-100; 4°C …
[8] = target: YAP (human (endogenous in MCF-10A-ER-Src)) (UniProt P46937); assay: as above

B2: FLAG-tagged JUNB (protein, UniProt P17275 1-347)
chain: MCTKMEQPFYHDDSYTATGYGRAPGGLSLHDYKLLKPSLAVNLADPYRSLKAPGARGPGPEGGGGGSYFSGQGSDTGASLKLASSELERLIVPNSNGVITTTPTPPGQYFYPRGGGSGGGAGGAGGGVTEEQEGFADGFVKALDDLHKMNHVTPPNVSLGATGGPPAGPGGVYAGPEPPPVYTNLSSYSPASASSGGAGAAVGTGSSYPTTTISYLPHAPPFAGGHPAQLGLGRGASTFKEEPQTVPEARSRDATPPVSPINMEDQERIKVERKRLRNRLAATKCRKRKLERIARLEDKVKTLKAENAGLSSTAGLLREQVAQLKQKVMTHVSNGCQLLLGVKGHAF
binding [2]: binds

B4: His-tagged recombinant JUNB (protein, UniProt P17275 1-347)
chain: B2 chain
binding [4]: binds

B5: His-tagged recombinant JUNB, P17275 1-347 (protein)
chain: B2 chain
binding [5]: binds

Second part, led by results:

binding [1]: binds
B1: FLAG-tagged JUNB, P17275 1-347 (protein)
chain: B2 chain

binding [3]: binds
B3: JUNB, P17275 1-347 (protein)
chain: B2 chain

binding [6]: binds
B6: JUNB (protein, UniProt P17275 1-347)
chain: B2 chain
binding [7]: no binding (condition: cytoplasm fraction) | binding [8]: no binding (condition: cytoplasm fraction)
